# Some of the results follow.
# B1: XCL (Xerocomus chrysenteron) (protein)
# chain: MSYSITLRVYQTNRDRGYFSIVEKTVWHFANGGTWSEANGAHTLTQGGSGTSGVLRFLSTKGERITVAVGVHNYKRWCDVVTGLKPDETALVINPQYYNNGGRDYVREKQLAEYSVTSAIGTKVEVVYTVAEGNNLEANVIFS
# How the values were obtained:
# Assay in all cases: glycan array binding signal (z-score within array); higher = stronger binding
# Conditions in all cases: glycan notation: IUPAC condensed, linker removed
# Gal6S(b1-4)Glc6S = target: Gal6S(b1-4)Glc6S
# Summary of the method: (§1)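 The Consortium for Functional Glycomics database supplied 3228 glycan arrays, of which those lacking an available protein sequence were dropped. The binding signal, a within-array Z-score, was averaged across arrays of the same protein sequence and across linkers. Negative scores can be read as non-binding.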
# Gal6S(b1-4)GlcNAc = target: Gal6S(b1-4)GlcNAc
# Summary of the method: as §1
# Gal6S(b1-4)GlcNAc6S = target: Gal6S(b1-4)GlcNAc6S
# Summary of the method: as §1
# GalNAc(a1-3)Gal = target: GalNAc(a1-3)Gal
# Summary of the method: as §1
# GalNAc(a1-3)GalNAc = target: GalNAc(a1-3)GalNAc
# Summary of the method: as §1
# [1] = target: GalNAc(a1-3)GalNAc(b1-3)Gal(a1-4)Gal(b1-4)Glc
# Summary of the method: as §1
# [2] = target: GalNAc(a1-3)GalNAc(b1-3)Gal(a1-4)Gal(b1-4)GlcNAc
# Summary of the method: as §1
# GalNAc(b1-3)Gal = target: GalNAc(b1-3)Gal
# Summary of the method: as §1
# [3] = target: GalNAc(b1-3)Gal(a1-4)Gal(b1-4)GlcNAc
# Summary of the method: as §1
# [4] = target: GalNAc(b1-3)Gal(a1-4)Gal(b1-4)GlcNAc(b1-3)Gal(b1-4)Glc
# Summary of the method: as §1
# [5] = target: GalNAc(b1-3)Gal(a1-6)Gal(b1-4)Glc
# Summary of the method: as §1
# GalNAc(b1-3)GalNAc = target: GalNAc(b1-3)GalNAc
# Summary of the method: as §1
# GalNAc(b1-4)Gal(b1-4)Glc = target: GalNAc(b1-4)Gal(b1-4)Glc
# Summary of the method: as §1
# GalNAc(b1-4)GlcNAc = target: GalNAc(b1-4)GlcNAc
# Summary of the method: as §1
# [6] = target: GalNAc(b1-4)GlcNAc(b1-2)Man(a1-3)[GalNAc(b1-4)GlcNAc(b1-2)Man(a1-6)]Man(b1-4)GlcNAc(b1-4)GlcNAc
# Summary of the method: as §1
# GalNAc(b1-6)GalNAc = target: GalNAc(b1-6)GalNAc
# Summary of the method: as §1
# Glc(a1-4)Glc = target: Glc(a1-4)Glc
# Summary of the method: as §1
# [7] = target: Glc(a1-4)Glc(a1-4)Glc(a1-4)Glc
# Summary of the method: as §1
# Glc(a1-6)Glc(a1-6)Glc = target: Glc(a1-6)Glc(a1-6)Glc
# Summary of the method: as §1
# [8] = target: Glc(a1-6)Glc(a1-6)Glc(a1-6)Glc
# Summary of the method: as §1
# Glc(b1-4)Glc = target: Glc(b1-4)Glc
# Summary of the method: as §1
# Glc(b1-6)Glc = target: Glc(b1-6)Glc
# Summary of the method: as §1
# GlcA(b1-3)Gal = target: GlcA(b1-3)Gal
# Summary of the method: as §1
# GlcA(b1-3)GlcNAc = target: GlcA(b1-3)GlcNAc
# Summary of the method: as §1
# GlcA(b1-6)Gal = target: GlcA(b1-6)Gal
# Summary of the method: as §1
# [9] = target: GlcNAc(a1-3)Gal(b1-4)GlcNAc
# Summary of the method: as §1
# [10] = target: GlcNAc(a1-4)Gal(b1-3)GlcNAc
# Summary of the method: as §1
# [11] = target: GlcNAc(a1-4)Gal(b1-4)GalNAc
# Summary of the method: as §1
# [12] = target: GlcNAc(a1-4)Gal(b1-4)GlcNAc
# Summary of the method: as §1
# [13] = target: GlcNAc(a1-4)Gal(b1-4)GlcNAc(b1-3)Gal(b1-4)Glc
# Summary of the method: as §1
# [14] = target: GlcNAc(a1-4)Gal(b1-4)GlcNAc(b1-3)Gal(b1-4)GlcNAc
# Summary of the method: as §1
# [15] = target: GlcNAc(a1-4)Gal(b1-4)GlcNAc(b1-3)Gal(b1-4)GlcNAc(b1-3)Gal(b1-4)GlcNAc
# Summary of the method: as §1
# [16] = target: GlcNAc(a1-4)Gal(b1-4)GlcNAc(b1-3)Gal(b1-4)[Fuc(a1-3)]GlcNAc(b1-3)Gal(b1-4)[Fuc(a1-3)]GlcNAc
# Summary of the method: as §1
# [17] = target: GlcNAc(a1-6)Gal(b1-4)GlcNAc
# Summary of the method: as §1
# [18] = target: GlcNAc(b1-2)Gal(b1-3)GalNAc
# Summary of the method: as §1
# [19] = target: GlcNAc(b1-2)Man(a1-3)[GlcNAc(b1-2)Man(a1-6)]Man(b1-4)GlcNAc(b1-4)GlcNAc
# Summary of the method: as §1
# [20] = target: GlcNAc(b1-2)Man(a1-3)[GlcNAc(b1-2)Man(a1-6)]Man(b1-4)GlcNAc(b1-4)[Fuc(a1-6)]GlcNAc
# Summary of the method: as §1
# [21] = target: GlcNAc(b1-2)Man(a1-3)[GlcNAc(b1-4)][GlcNAc(b1-2)Man(a1-6)]Man(b1-4)GlcNAc(b1-4)GlcNAc
# Summary of the method: as §1
# [22] = target: GlcNAc(b1-2)[GlcNAc(b1-4)]Man(a1-3)[GlcNAc(b1-2)Man(a1-6)]Man(b1-4)GlcNAc(b1-4)GlcNAc
# Summary of the method: as §1
# [23] = target: GlcNAc(b1-2)[GlcNAc(b1-4)]Man(a1-3)[GlcNAc(b1-4)][GlcNAc(b1-2)Man(a1-6)]Man(b1-4)GlcNAc(b1-4)GlcNAc
# Summary of the method: as §1
# [24] = target: GlcNAc(b1-2)[GlcNAc(b1-4)]Man(a1-3)[GlcNAc(b1-4)][GlcNAc(b1-2)[GlcNAc(b1-6)]Man(a1-6)]Man(b1-4)GlcNAc(b1-4)GlcNAc
# Summary of the method: as §1
# [25] = target: GlcNAc(b1-2)[GlcNAc(b1-6)]Man(a1-6)[GlcNAc(b1-2)Man(a1-3)]Man(b1-4)GlcNAc(b1-4)GlcNAc
# Summary of the method: as §1
# [26] = target: GlcNAc(b1-2)[GlcNAc(b1-6)]Man(a1-6)[GlcNAc(b1-2)Man(a1-3)][GlcNAc(b1-4)]Man(b1-4)GlcNAc(b1-4)GlcNAc
# Summary of the method: as §1
# GlcNAc(b1-3)Gal = target: GlcNAc(b1-3)Gal
# Summary of the method: as §1
# [27] = target: GlcNAc(b1-3)Gal(b1-3)GalNAc
# Summary of the method: as §1
binder,measurement,setting,value
B1,glycan array binding signal (z-score),Gal6S(b1-4)Glc6S,-0.302
same,glycan array binding signal (z-score),Gal6S(b1-4)GlcNAc,-0.253
same,glycan array binding signal (z-score),Gal6S(b1-4)GlcNAc6S,-0.32
same,glycan array binding signal (z-score),GalNAc(a1-3)Gal,-0.3
same,glycan array binding signal (z-score),GalNAc(a1-3)GalNAc,-0.303
same,glycan array binding signal (z-score),[1],-0.062
same,glycan array binding signal (z-score),[2],-0.069
same,glycan array binding signal (z-score),GalNAc(b1-3)Gal,-0.313
same,glycan array binding signal (z-score),[3],-0.32
same,glycan array binding signal (z-score),[4],-0.322
same,glycan array binding signal (z-score),[5],-0.323
same,glycan array binding signal (z-score),GalNAc(b1-3)GalNAc,0.592
same,glycan array binding signal (z-score),GalNAc(b1-4)Gal(b1-4)Glc,-0.311
same,glycan array binding signal (z-score),GalNAc(b1-4)GlcNAc,-0.285
same,glycan array binding signal (z-score),[6],-0.323
same,glycan array binding signal (z-score),GalNAc(b1-6)GalNAc,-0.321
same,glycan array binding signal (z-score),Glc(a1-4)Glc,-0.324
same,glycan array binding signal (z-score),[7],-0.321
same,glycan array binding signal (z-score),Glc(a1-6)Glc(a1-6)Glc,-0.318
same,glycan array binding signal (z-score),[8],-0.318
same,glycan array binding signal (z-score),Glc(b1-4)Glc,-0.304
same,glycan array binding signal (z-score),Glc(b1-6)Glc,-0.298
same,glycan array binding signal (z-score),GlcA(b1-3)Gal,-0.318
same,glycan array binding signal (z-score),GlcA(b1-3)GlcNAc,-0.317
same,glycan array binding signal (z-score),GlcA(b1-6)Gal,-0.309
same,glycan array binding signal (z-score),[9],1.7
same,glycan array binding signal (z-score),[10],1.03
same,glycan array binding signal (z-score),[11],0.367
same,glycan array binding signal (z-score),[12],2.15
same,glycan array binding signal (z-score),[13],1.76
same,glycan array binding signal (z-score),[14],1.75
same,glycan array binding signal (z-score),[15],5.84
same,glycan array binding signal (z-score),[16],0.858
same,glycan array binding signal (z-score),[17],0.302
same,glycan array binding signal (z-score),[18],-0.139
same,glycan array binding signal (z-score),[19],4.71
same,glycan array binding signal (z-score),[20],1.03
same,glycan array binding signal (z-score),[21],5.38
same,glycan array binding signal (z-score),[22],2.79
same,glycan array binding signal (z-score),[23],4.92
same,glycan array binding signal (z-score),[24],1.33
same,glycan array binding signal (z-score),[25],1.42
same,glycan array binding signal (z-score),[26],3.42
same,glycan array binding signal (z-score),GlcNAc(b1-3)Gal,0.225
same,glycan array binding signal (z-score),[27],3.71
